The values below come from publication PMC6919601, “Identification of Plasmodium dipeptidyl aminopeptidase allosteric inhibitors by high throughput screening” (PLoS ONE, 2019).

Screen size: about 110,000 compounds; about 230 (0.21%) showed an effect of 50% or more. The list shows a part of the results.
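Also: 30 min substrate incubation versus DMSO and 10 µM JCP410 controls.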

DPAP1, sequence (Q8IIJ9 whole entry, looked up): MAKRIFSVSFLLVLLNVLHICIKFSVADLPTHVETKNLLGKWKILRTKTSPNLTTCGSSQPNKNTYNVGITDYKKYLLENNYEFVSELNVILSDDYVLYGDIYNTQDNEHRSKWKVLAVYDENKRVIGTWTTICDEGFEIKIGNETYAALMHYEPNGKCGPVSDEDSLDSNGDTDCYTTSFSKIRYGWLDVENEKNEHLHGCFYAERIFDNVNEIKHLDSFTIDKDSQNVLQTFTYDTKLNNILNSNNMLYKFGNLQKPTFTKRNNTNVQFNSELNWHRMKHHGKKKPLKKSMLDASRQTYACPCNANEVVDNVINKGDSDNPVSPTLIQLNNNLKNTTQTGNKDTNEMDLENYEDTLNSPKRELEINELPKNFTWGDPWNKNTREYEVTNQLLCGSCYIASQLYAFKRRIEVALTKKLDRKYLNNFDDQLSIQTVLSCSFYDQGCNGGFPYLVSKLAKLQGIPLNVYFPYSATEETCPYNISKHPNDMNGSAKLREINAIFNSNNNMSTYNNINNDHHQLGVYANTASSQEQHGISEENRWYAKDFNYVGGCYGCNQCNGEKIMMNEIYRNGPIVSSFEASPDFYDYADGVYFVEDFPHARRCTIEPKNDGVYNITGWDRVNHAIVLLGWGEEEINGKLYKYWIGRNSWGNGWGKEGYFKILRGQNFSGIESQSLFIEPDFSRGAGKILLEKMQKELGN

The assay concerns the target DPAP1 (Plasmodium falciparum, UniProt Q8IIJ9). The experiment in a line: primary screen, percent inhibition; read by cleavage of a fluorogenic dipeptide substrate; higher = more effect of the substance. Also on record: species or system P. falciparum D10 trophozoite lysates; single well.
With `COc1ccc(C2C(C(=O)O)c3ccccc3C(=O)N2C)cc1OC` (stereo not shown), the “% Inhibition @ 10 uM” value is given as -3.31%.
`CC1CN(CC(O)COc2ccc(Cl)cc2)CC(C)O1` (stereo not shown): the “% Inhibition @ 10 uM” value is recorded as -3.44%.
The value for `O=C1CCCC2=C1C(c1cccs1)C1C(=O)c3ccccc3C1=N2` (stereo not shown) was -0.171%; that for `CN(C)S(=O)(=O)c1ccc2c(c1)Cc1cc(S(=O)(=O)N(C)C)ccc1-2` was -3.75%; that for `CC1=C(C(=O)NCCCN2CCN(C)CC2)C2(CCCCC2)OC1=O` was 1.76%.
As to `CC1(C)CC2=NC3=C(C(=O)c4ccccc43)C(c3cccnc3)C2=C(O)C1` (stereo not shown), the “% Inhibition @ 10 uM” value is recorded as 0.851%.
Turning to `O=C(Nc1cccc(Br)c1)/C(=C\c1ccco1)NC(=O)c1cccs1`, the “% Inhibition @ 10 uM” value worked out at 0.792%.
With `CCN(CC)c1ccc(NC(=O)c2ccc(Cl)cc2)cc1`, the “% Inhibition @ 10 uM” value is reported as 6.18%.
Turning to `Cc1cccc(C(=O)Nc2sc3c(c2C(=O)N2CCOCC2)CCC3)c1`, the “% Inhibition @ 10 uM” value is on record as -6.6%.
Turning to `C[C@@H](C[C@H](NC(=O)c1ccc(-c2cc(C(=O)O)ccc2Cl)cc1)C(=O)NC1(C#N)CCS(=O)(=O)CC1)c1ccccc1`, the “% Inhibition @ 10 uM” value is listed as -8.36%.
Turning to `CCC1CCC(NCc2ccncc2)CC1` (stereo not shown), the “% Inhibition @ 10 uM” value is given as -3.42%.
Take `Cc1ccccc1S(=O)Cc1ccc(C(=O)N2CC(C)CC(C)C2)o1` (stereo not shown): the “% Inhibition @ 10 uM” value was -3.09%.
As for `O=C(CN1C(=O)c2ccccc2C1=O)Nc1ccc(NC(=O)c2ccco2)cc1`, the “% Inhibition @ 10 uM” value is on record as 11.5%.
With `COc1ccc(CN2CCN(Cc3cccc(Br)c3)CC2)c(OC)c1`, the “% Inhibition @ 10 uM” value is recorded as -4.6%.
Consider `COCCNC(=O)c1cc2c(Cl)nc3ccccc3c2s1`, for which the “% Inhibition @ 10 uM” value is 4.41%.
As for `Cc1noc(/C=C/c2cccs2)c1S(=O)(=O)N1CCC(C(=O)NCc2cccnc2)CC1`, the figure is -1.28%; as for `O=C(CN1CCN(c2ccc(Cl)cc2)CC1)Nc1ccccc1Cl`, 15.2%; as for `c1ccc(CN2CCC(NCC3CCCO3)CC2)cc1` (stereo not shown), 1.57%.
As for `COc1ccc(-c2cc(-c3ccc(F)cc3)nc(-c3ccncc3)n2)cc1`, the figure is 5.45%.
The value for `Cc1cc2nc(O)c(O)nc2cc1S(=O)(=O)NCc1ccccc1` was 0.442%; that for `C=CC1CN2CCC1CC2C(OC(=O)c1ccco1)c1ccnc2ccccc12` (stereo not shown) was 3.14%; that for `O=C1c2ccccc2C(=O)N1c1nccs1` was -1.77%.
For the compound `CCc1ccc(N(CC(=O)Nc2ccc(NC(C)=O)cc2)S(=O)(=O)c2ccccc2)cc1`, the “% Inhibition @ 10 uM” value was determined as 13.9%.
On to `CC(=O)Nc1sc2c(c1C(=O)Nc1ccccc1C)CCC(C)C2` (stereo not shown), for which the “% Inhibition @ 10 uM” value is -0.67%.
On to `CCCCN(CCCNC(=O)C1CCN(S(=O)(=O)CCC)CC1)Cc1ccccc1`, for which the “% Inhibition @ 10 uM” value is given as 1.62%.
As to `N#Cc1ccccc1NC(=O)C(Cc1ccc([N+](=O)[O-])cc1)N1C(=O)c2ccccc2C1=O` (stereo not shown), the “% Inhibition @ 10 uM” value is listed as 0.937%.
Turning to `CN1C(N)=NC(=O)/C1=C/c1cccnc1`, the “% Inhibition @ 10 uM” value was 2.56%.
For the compound `Cc1ccccc1-c1noc(-c2nnn(-c3cccc(C)c3C)c2N)n1`, the “% Inhibition @ 10 uM” value is reported as -6.26%.
Consider `CC(=O)Nc1c(C(=O)c2ccc(F)cc2)oc2ccccc12`, for which the “% Inhibition @ 10 uM” value was found to be 1.4%.
Consider `CN(C)c1ccc(/C=c2/sc3n(c2=O)CCCCN=3)cc1`, for which the “% Inhibition @ 10 uM” value worked out at 3.72%.
For the compound `CC(NC(=O)C1CCN(C(=O)N(C)C)CC1)c1ccccc1` (stereo not shown), the “% Inhibition @ 10 uM” value is recorded as -1.34%.
As to `CC(/C=C1\N=C(c2ccccc2F)OC1=O)=C\c1ccccc1`, the “% Inhibition @ 10 uM” value was found to be 1.97%.
Turning to `COc1cccc(C2C=C(c3ccc(C(C)C)cc3)Nc3nnnn32)c1OC` (stereo not shown), the “% Inhibition @ 10 uM” value came to 1.86%.
As for `CCCN(CCO)Cc1ccc(SC)cc1`, the “% Inhibition @ 10 uM” value turned out to be 4.28%.
The value for `c1ccc(-c2n[nH]c(-c3ccccc3)c3cccc2-3)cc1` was 0.716%; that for `COc1ccc(N/C=C2\C(=O)N(C)C(=O)c3cc(OC)ccc32)cc1` was 4.06%.
Take `CCOc1ncnc2c1sc1nc(-c3ccccc3)c3c(c12)CC(C)(C)OC3`: the “% Inhibition @ 10 uM” value was determined as 1.63%.
`COc1cccc(C(=O)Nc2ccc(F)cc2)c1`: the “% Inhibition @ 10 uM” value is -5.82%.
On to `O=C1C2C(c3cccc(F)c3)OC3(C(=O)c4ccccc4C3=O)C2C(=O)N1C1CCCCC1` (stereo not shown), for which the “% Inhibition @ 10 uM” value was 4.26%.
In the case of `Cn1c2c(c(=O)n(C)c1=O)CN(CCOc1cccc(C(F)(F)F)c1)CN2`, the “% Inhibition @ 10 uM” value is -1.08%.
Turning to `Cc1ccc(Cn2c(SCc3ccc(C(=O)NCCN4CCCC4)cc3)nc3ccncc32)cc1`, the “% Inhibition @ 10 uM” value was -2.37%.
As for `COc1ccc2nc3c([N+](=O)[O-])ccc(Cl)c3c(O)c2c1`, the figure is -4.4%; as for `CCC(c1cccs1)N1CNc2c(c(=O)n(C)c(=O)n2C)C1` (stereo not shown), -2.88%.
As for `CC(C)(C)c1ccc(/C=C/C(=O)NC2CCS(=O)(=O)C2)cc1` (stereo not shown), the “% Inhibition @ 10 uM” value stood at 2.09%.
`CCCN1Cc2cccc(C(=O)NCc3cccs3)c2C1=O`: the “% Inhibition @ 10 uM” value is recorded as -0.499%.
Consider `OC1(C#Cc2ccccc2)c2ccccc2-c2ncccc21` (stereo not shown), for which the “% Inhibition @ 10 uM” value worked out at 3.15%.
Take `CN(C)CCNC(=O)c1cc2ccccc2oc1=O`: the “% Inhibition @ 10 uM” value was -3.53%.
For the compound `Cc1ccc(CNC(=O)CNS(=O)(=O)c2c(C)cc(C)cc2C)cc1`, the “% Inhibition @ 10 uM” value was -0.564%.
Take `CCNC(=O)c1ccc(CSc2nc3cccnc3n2Cc2cccc(F)c2)cc1`: the “% Inhibition @ 10 uM” value was 6.55%.
Consider `O=C(c1ccc(Cl)cc1)N1CCCOC1`, for which the “% Inhibition @ 10 uM” value is 25.2%.
As to `COc1ccc(CNc2nc(-c3ccccc3)nn2C(=O)COc2ccccc2)cc1`, the “% Inhibition @ 10 uM” value is listed as -1.11%.
In the case of `COc1ccc(N2C(=O)CC(N3CCN(c4cc(C)ccc4C)CC3)C2=O)cc1` (stereo not shown), the “% Inhibition @ 10 uM” value was -8.29%.
Regarding `CC1CC(C)(C)NC(=S)N1CC(=O)NCc1ccccc1Cl` (stereo not shown), the “% Inhibition @ 10 uM” value is -1.51%.
Take `CCOc1ccc(CNc2ccccc2Cl)cc1OC`: the “% Inhibition @ 10 uM” value was -8.78%.
For `CCCOc1ccc(C2C(C(=O)c3ccc4c(c3)OCCO4)=C(O)C(=O)N2CC2CCCO2)cc1` (stereo not shown), the “% Inhibition @ 10 uM” value is reported as -5.03%.
For the compound `O=C(Cc1coc2ccc3ccccc3c12)Nc1cccnc1`, the “% Inhibition @ 10 uM” value is -1.38%.
As for `CCn1cc(C(=O)Nc2ccc(Cl)cc2C)c(C)n1`, the figure is -4.18%; as for `CCC(C(=O)NCc1cccnc1)n1sc2ccccc2c1=O` (stereo not shown), 2.21%.
The value for `COc1ccc2c(CNCC(C)c3ccccc3)c(C(=O)O)n(Cc3ccccc3F)c2c1` (stereo not shown) was -5.93%; that for `COCC(C)NC(=O)C(=O)c1cn(CC(=O)N2CCOCC2)c2ccccc12` (stereo not shown) was -4.49%; that for `COc1ccc2c(c1)c(=O)oc1cc(OCC(=O)O)ccc12` was -3.41%.
Turning to `Cn1c(S(=O)(=O)Cc2ccc(Cl)cc2)nc2ccccc21`, the “% Inhibition @ 10 uM” value came out at 3.15%.
With `CC(=O)N/C(=C\c1ccccc1)C(=O)Nc1ccc(C)c(C)c1`, the “% Inhibition @ 10 uM” value is on record as 4.54%.
Turning to `CCCCN(CC)C(=O)CSc1nc2ccsc2c(=O)n1CC1CCC(C(=O)O)CC1` (stereo not shown), the “% Inhibition @ 10 uM” value is 4.02%.
